The record followed here is the RNAGym collection of RNA variant scans (doi:10.1093/nar/gkz1192).

First the molecules themselves.
B1: CPEB3 Ribozyme (parent)
chain: UAACAGGGGGCCACAGCAGAAGCGUUCACGUCGCAGCCCCUGUCAGAUUCUGGUGAAUCUGCGAAUUCUGCUGUAUAUCUC

The source gives no read counts; variants with many changes may rest on few reads.

The data set covers variants of B1. In words: self-cleavage, relative activity (ratio to wild type); higher = more cleavage; in vitro, sequencing. The essentials: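 Relative activity compares each variant's cleaved/total read fraction with that of the unmutated ribozyme. To get these fractions, barcoded CPEB3 ribozyme libraries from rounds of error-prone PCR were transcribed with T7 RNA polymerase for 5 hours at 37°C and then given 15 min of DNase I treatment before EDTA was added. The RNAs were reverse transcribed with template switching and sequenced on Illumina, and DNA sequencing linked barcodes to variants. A minimum of 5 reads applied, and three batches were averaged.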
Consider A45C G52U A64U, for which the self-cleavage worked out at 0.14.

In the case of A45G U48C A57G, the self-cleavage is 0.66.

Turning to A47G A57G A64U U76C, the self-cleavage was 0.29.

Regarding U43C U58C U60G U72C, the self-cleavage was found to be 0.15.

Regarding A45U U48C U58G, the self-cleavage was determined as 0.16.

A45U U48C U58C: the self-cleavage was 0.18.

Consider A47G U51C G63A A77G, for which the self-cleavage was found to be 0.71.

With A45G U58G U69A, the self-cleavage stood at 0.21.

As for U41C U54G C68U, the self-cleavage is 0.66.

With A45U U48A C68U A77U, the self-cleavage came out at 0.08.

For the variant U43C U54C A56U, the self-cleavage is 0.34.

Regarding U41C U49A U69C U72C, the self-cleavage is 0.28.

For the variant A45C G52A A64U A75G, the self-cleavage came to 0.1.

In the case of U43G U48C U51A U58C, the self-cleavage was 0.11.

Consider U41G A47G U54C U67C, for which the self-cleavage turned out to be 0.12.

Regarding U41C U67A U72C U76C, the self-cleavage came out at 0.52.

In the case of U43C U54A U67C, the self-cleavage is 0.18.

As for A45U U51C U69A U72A, the self-cleavage was found to be 0.19.

In the case of A45U A47G A56U U69C, the self-cleavage stood at 0.15.

For the variant U43C A45U G73A A75C U80C, the self-cleavage stood at 0.71.

For U41C U48C U66C, the self-cleavage was 0.31.

With U43A A65G U78G, the self-cleavage was 1.01.

A45G A56G U66G: the self-cleavage is 0.38.

On to A45G U49C U66C U74C, for which the self-cleavage was 0.11.

With U41C U51A U80A, the self-cleavage came to 1.21.

U43C U51C A64G A77U: the self-cleavage came to 0.3.

As for U41C U49A A57G, the self-cleavage amounted to 0.53.

As to A47G A56G A65G, the self-cleavage was determined as 0.14.

With A45G A47U U69A, the self-cleavage worked out at 0.12.

On to C44A A45G G55A U74C, for which the self-cleavage stood at 0.18.

Consider G42A A47G U51A G52U U78C, for which the self-cleavage came to 0.07.

Take U43A U60A A65U U74C: the self-cleavage worked out at 0.14.

As for G42A A56U A65U U78C, the self-cleavage turned out to be 0.04.

As for C44U A65G U80C, the self-cleavage is 0.19.

On to U41C U58C U69C, for which the self-cleavage is 0.31.

As for U41C U49C C81A, the self-cleavage was determined as 0.37.

For A45G U60A A64U, the self-cleavage came out at 0.19.

Regarding A47G A56C A57G U80C, the self-cleavage is 0.16.

U41G U51A A64U: the self-cleavage was determined as 0.35.

On to A45U U49C U72C U74C, for which the self-cleavage came out at 0.16.

As for A45U G52U A77U, the self-cleavage was 0.75.

In the case of U43A A45G U48C U51A, the self-cleavage was found to be 0.25.

Regarding A45G U78C C81U, the self-cleavage was 0.89.

Regarding A45G A56G A75U, the self-cleavage was 0.83.

As to A45C A57G U67C, the self-cleavage came out at 0.11.

On to U43C U58C A64U, for which the self-cleavage is 0.39.

On to U43A A45G U78C, for which the self-cleavage was 0.88.

A45U U51G A56C G63A U72C A75G: the self-cleavage amounted to 0.09.

For U43C A45U A65G, the self-cleavage turned out to be 0.14.

Regarding U41C U49C U51G, the self-cleavage came out at 0.64.

In the case of G46U A47G U54C A57G U58C, the self-cleavage stood at 0.17.

For the variant A47G A57C G61U U72C, the self-cleavage came out at 0.1.

Consider G46A U60A U67C, for which the self-cleavage is 0.14.

In the case of U41C U54C U60C, the self-cleavage turned out to be 0.54.

A45G U60C U74C: the self-cleavage amounted to 1.21.

Turning to U41C U60C U78C, the self-cleavage is 0.35.

On to U43C A56U U60A U74C A75U, for which the self-cleavage worked out at 0.13.

As to C44U U72A U80C, the self-cleavage turned out to be 0.65.

For U43G U60C U67C, the self-cleavage was 0.2.

For the variant A47G U49C A57U A75G, the self-cleavage was found to be 0.36.

Take A45G U60A U80C: the self-cleavage came to 0.6.

For the variant A45G U51C U54C A65G U69A A75G, the self-cleavage worked out at 0.22.

In the case of A47G U49A C50U U80C, the self-cleavage is 0.43.

For U43C A56G U58G U72C, the self-cleavage amounted to 0.1.

As to U43A U51C U54A, the self-cleavage came to 1.16.

A47G U48A A64U U74C: the self-cleavage is 0.12.

Regarding U43C C50G U60G U69C, the self-cleavage amounted to 0.14.

On to A47G U51C U67C U76C, for which the self-cleavage was 0.49.

As for U41C U67A U72C, the self-cleavage was 0.58.

On to A45C A57G A64G A75G, for which the self-cleavage was 0.09.

Consider U41C U66C U72C, for which the self-cleavage was 0.44.

For the variant A45U A56G A64G U72C, the self-cleavage was 0.33.

Take U41C U60G U80C: the self-cleavage was 0.58.

For U41G U49C A65G, the self-cleavage worked out at 0.16.

As for A45G U58C U80C, the self-cleavage is 0.21.

On to A45C U48A U80C, for which the self-cleavage was 0.23.

With G42A A47C U54C U67C U69A, the self-cleavage is 0.52.

Regarding U41C U51A U69C, the self-cleavage was determined as 0.73.

Turning to U43C A45G A47G, the self-cleavage was found to be 0.27.

Turning to A45G A47U U49A U51A U67C, the self-cleavage amounted to 0.26.

Regarding A45U U58C A64G U67C, the self-cleavage was 0.1.

Turning to A45G A47G G52C U67C, the self-cleavage came to 0.16.

For the variant U41C U51C U69A U76C, the self-cleavage amounted to 0.8.

Turning to A45G A57G U58G, the self-cleavage is 0.42.

On to A47G G53A U72C, for which the self-cleavage was found to be 1.13.

On to U43C C44U U80C, for which the self-cleavage amounted to 0.38.

On to A45U U49C A56U U69A U74C, for which the self-cleavage turned out to be 0.1.

Consider G42U A47G A64U, for which the self-cleavage was 0.13.

Take C44A A45U U69A: the self-cleavage is 0.17.

Turning to A47G U51C U72C, the self-cleavage was 1.27.

For U41C U51A U54A A64U U67C, the self-cleavage is 0.26.

On to A45U A64U C79U, for which the self-cleavage was 0.15.

As for U43C A45G U72C, the self-cleavage came to 0.54.

Turning to U43A A47U U76A, the self-cleavage came to 0.64.

Take A45C U66A U72C: the self-cleavage came out at 0.18.

Take A45U G53A A64G U72A: the self-cleavage was found to be 0.4.

U43A U54A U69C: the self-cleavage amounted to 0.77.

As for U43C U69C A75U, the self-cleavage is 0.13.

As for G42C U43A A77G, the self-cleavage was found to be 0.27.

Take U43C A45C A57G A64U: the self-cleavage stood at 0.05.

For U41C U58C U74C, the self-cleavage was 1.04.

For the variant A45U U49C U72A U74C, the self-cleavage was 0.09.

With A45G A56G U76C C81A, the self-cleavage turned out to be 0.84.

As to U43C G53A C62U, the self-cleavage is 0.52.

As for A45U A64G A75U, the self-cleavage was 0.52.

Turning to A45U A64G A75G, the self-cleavage worked out at 0.32.

For the variant U43A U48C G55U U72C, the self-cleavage was found to be 0.5.

Take U41G C59A A65G: the self-cleavage came to 0.13.

As for U43C U54G A57G C59U, the self-cleavage was 0.17.

Regarding U41G U43C G55A U74A, the self-cleavage came out at 0.3.

Turning to A45G A47C U76A, the self-cleavage was 0.17.

For A45U U72A A77G U80C, the self-cleavage is 0.93.

Take G46A U54C U80C: the self-cleavage turned out to be 0.27.

As for G42U A47G U48A U67C U69C A75U U76C, the self-cleavage is 0.04.

For U43C U66A U67C A75U, the self-cleavage was found to be 0.15.

On to U43C U60C A64G A77U, for which the self-cleavage amounted to 0.12.

As to U43C A65U U69C A77U, the self-cleavage was found to be 0.09.

For U41C U51C A65G, the self-cleavage was 0.51.

Turning to C44U U69C U72A U74C, the self-cleavage was 0.13.

For the variant G42A A45G G46A, the self-cleavage is 0.22.

As to A45G U69A U76A U80A, the self-cleavage stood at 0.62.

Consider A45G U48C U49C A56G A57G, for which the self-cleavage is 0.32.

For the variant A45U U48C G52A U67C, the self-cleavage is 0.12.

In the case of U41C U51C U58C, the self-cleavage stood at 0.54.

U41G U49A A64G: the self-cleavage is 0.23.

As to C44A A45G U51C, the self-cleavage was 0.35.

Consider A45U A65G U80C, for which the self-cleavage was determined as 0.15.

Take A45U U60C U72C: the self-cleavage worked out at 0.18.

A45C A77U U78C: the self-cleavage is 0.31.

Consider U43C U74C A75G, for which the self-cleavage worked out at 0.9.

Regarding G42A U60A U72A U80A, the self-cleavage was determined as 0.43.

For the variant A45G G52U U78C, the self-cleavage was 0.98.

Take G46U A47U A56G U69C: the self-cleavage is 0.09.

As for A45U U67A U74G, the self-cleavage was 0.29.

For U43C A45G A57G U58C, the self-cleavage is 0.16.

With U43C A47C A56G U69A A77G, the self-cleavage stood at 0.09.

G46C A57G U67C U72C G73A: the self-cleavage turned out to be 0.07.

With G42U A45U U66A, the self-cleavage is 0.19.

Consider A47G U54A U66C, for which the self-cleavage was determined as 0.22.

With G42A G63U U72A, the self-cleavage worked out at 0.23.

In the case of A47C U58C U60C G73U, the self-cleavage is 0.17.

As for A45G A64U A65G U67C, the self-cleavage stood at 0.16.

With G42A A47G U51C U78C, the self-cleavage turned out to be 0.21.

In the case of A45C U49C A75G, the self-cleavage came to 0.1.

U43C A47G U54C A57G: the self-cleavage came to 0.38.

G46C A47G U58C: the self-cleavage came to 0.37.

In the case of U41C U49C U54A A64C, the self-cleavage stood at 0.16.

On to A45G U49A A56U U60A, for which the self-cleavage is 0.71.

In the case of U43C G53U U54C, the self-cleavage amounted to 1.03.

Take A45G U49C U78C: the self-cleavage came out at 0.19.

As to U41C U48C A56G U72A U80C, the self-cleavage stood at 0.73.

For the variant U43A U51C U66C, the self-cleavage came to 0.54.

On to A45U U60A U67C U76C, for which the self-cleavage was 0.1.

As to G42A A45G U80C, the self-cleavage stood at 0.12.

Consider A45G U69C U72C, for which the self-cleavage amounted to 0.35.

As to A45G U49C A64G, the self-cleavage came to 0.22.

As to U43A A64U U67G A75U, the self-cleavage came out at 0.16.

As for G42U U66A U78C, the self-cleavage is 0.29.

On to U43A U49C U76C, for which the self-cleavage was 0.44.

On to U43C U54A U78C, for which the self-cleavage came out at 0.78.

Turning to G46A A56G A64U A65U U74C, the self-cleavage was found to be 0.11.

For A45G A56C C68A, the self-cleavage worked out at 0.12.

For U43A A57G U66A, the self-cleavage came out at 0.38.

As to A45U A65U U72C C81A, the self-cleavage stood at 0.27.

In the case of A47G U48C A56C C71U, the self-cleavage was 0.16.

For the variant U43A U49A A57U U58C, the self-cleavage stood at 0.19.

For the variant U43C U48C G63U U69A, the self-cleavage is 0.11.
